# Laboratory results: the supplement of paper PMC12217912
# Some of the results follow. The full chains were built here from the parent and the listed change. Inactive controls read about 0.05.
# B1: TEV protease; numbered along this chain (parent)
# chain: MGESLFKGPRDYNPISSSICHLTNESDGHTTSLYGIGFGPFIITNKHLFRRNNGTLVVQSLHGVFKVKDTTTLQQHLVDGRDMIIIRMPKDFPPFPQKLKFREPQREERICLVTTNFQTKSMSSMVSDTSCTFPSGDGIFWKHWIQTKDGQCGSPLVSTRDGFIVGIHSASNFTNTNNYFTSVPKNFMELLTNQEAQQWVSGWRLNADSVLWGGHKVFMVKPEEPFQPVKEATQL
# Variants of: B1
# Assay: raw area under fraction-flipped curve 0-4 h after induction (AUC4h, not background-subtracted), DNA-recorder readout of cleavage of the substrate (dimensionless); higher = more cleavage of the substrate by the protease variant
# Settings: temperature: 34 °C; time window: 0-4 h after rhamnose induction
# Description: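 In vivo DNA recorder in E. coli TOP10(DE3) ΔrhaA at 34 °C. Each TEVp single-site mutant (parent TEVp 0) is paired with a single-site variant of the 7-mer TEVs (canonical ENLYFQ|S). The substrate sits between flexible linkers in a Bxb1-sfGFP-TEVs-SsrA fusion, so cleavage stabilises Bxb1 and speeds flipping of a recombination array, read by NGS. The value is the raw area under the fraction-flipped curve over 0-4 h after rhamnose induction (AUC4h), with ≥20 reads per time point. It is not background-subtracted; inactive controls average about 0.047.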
# 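Note: Bxb1 expression induced with 0.2% (w/v) L-rhamnose at OD600 near 0.5, cultures sampled hourly, flipped fraction per protease–substrate barcode pair counted by paired-end Illumina sequencing.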
Variant,area with substrate ENAYFQS,area with substrate ENEYFQS,area with substrate ENFYFQS,area with substrate ENGYFQS,area with substrate ENKYFQS,area with substrate ENTYFQS,area with substrate ENVYFQS,area with substrate ENDYFQS,area with substrate ENIYFQS,area with substrate ENYYFQS
MGESLFKGPRDYNPISSSICHLTNESDGHTTSLYGIGFGPFIITNKHLFRRNNGTLVVQSLHGVFKVKDTTTLQQHLVDGRDMIIIRMPKDFPPFPQKLKFREPQREERICLVTTNFQTKSMSSMVSDTSCTFPSGSGIFWKHWIQTKDGQCGSPLVSTRDGFIVGIHSASNFTNTNNYFTSVPKNFMELLTNQEAQQWVSGWRLNADSVLWGGHKVFMVKPEEPFQPVKEATQL [D137S],0.0574,0.07,–,–,–,–,–,–,–,–
MGESLFKGPRDYNPISSSICHLTNESDGHTTSLYGIGFGPFIITNKHLFRRNNGTLVVQSLHGVFKVKDTTTLQQHLVDGRDMIIIRMPKDFPPFPQKLKFREPQREERICLVTTNFQTKSMSSMVSDTSCTFPSGDFIFWKHWIQTKDGQCGSPLVSTRDGFIVGIHSASNFTNTNNYFTSVPKNFMELLTNQEAQQWVSGWRLNADSVLWGGHKVFMVKPEEPFQPVKEATQL [G138F],0.0663,–,0.0351,0.0605,0.0673,0.0224,0.0661,–,–,–
MGESLFKGPRDYNPISSSICHLTNESDGHTTSLYGIGFGPFIITNKHLFRRNNGTLVVQSLHGVFKVKDTTTLQQHLVDGRDMIIIRMPKDFPPFPQKLKFREPQREERICLVTTNFQTKSMSSMVSDTSCTFPSGDLIFWKHWIQTKDGQCGSPLVSTRDGFIVGIHSASNFTNTNNYFTSVPKNFMELLTNQEAQQWVSGWRLNADSVLWGGHKVFMVKPEEPFQPVKEATQL [G138L],0.0382,–,–,–,–,0.0516,0.0651,0.076,0.0857,0.0522
MGESLFKGPRDYNPISSSICHLTNESDGHTTSLYGIGFGPFIITNKHLFRRNNGTLVVQSLHGVFKVKDTTTLQQHLVDGRDMIIIRMPKDFPPFPQKLKFREPQREERICLVTTNFQTKSMSSMVSDTSCTFPSGDMIFWKHWIQTKDGQCGSPLVSTRDGFIVGIHSASNFTNTNNYFTSVPKNFMELLTNQEAQQWVSGWRLNADSVLWGGHKVFMVKPEEPFQPVKEATQL [G138M],0.0896,0.0709,–,–,–,–,–,0.0531,–,–
MGESLFKGPRDYNPISSSICHLTNESDGHTTSLYGIGFGPFIITNKHLFRRNNGTLVVQSLHGVFKVKDTTTLQQHLVDGRDMIIIRMPKDFPPFPQKLKFREPQREERICLVTTNFQTKSMSSMVSDTSCTFPSGDWIFWKHWIQTKDGQCGSPLVSTRDGFIVGIHSASNFTNTNNYFTSVPKNFMELLTNQEAQQWVSGWRLNADSVLWGGHKVFMVKPEEPFQPVKEATQL [G138W],0.0618,–,0.0537,0.0589,0.0578,0.0641,–,0.0667,0.077,0.0606
MGESLFKGPRDYNPISSSICHLTNESDGHTTSLYGIGFGPFIITNKHLFRRNNGTLVVQSLHGVFKVKDTTTLQQHLVDGRDMIIIRMPKDFPPFPQKLKFREPQREERICLVTTNFQTKSMSSMVSDTSCTFPSGDGISWKHWIQTKDGQCGSPLVSTRDGFIVGIHSASNFTNTNNYFTSVPKNFMELLTNQEAQQWVSGWRLNADSVLWGGHKVFMVKPEEPFQPVKEATQL [F140S],0.0457,–,–,0.0388,–,–,–,0.0699,–,–
MGESLFKGPRDYNPISSSICHLTNESDGHTTSLYGIGFGPFIITNKHLFRRNNGTLVVQSLHGVFKVKDTTTLQQHLVDGRDMIIIRMPKDFPPFPQKLKFREPQREERICLVTTNFQTKSMSSMVSDTSCTFPSGDGIFFKHWIQTKDGQCGSPLVSTRDGFIVGIHSASNFTNTNNYFTSVPKNFMELLTNQEAQQWVSGWRLNADSVLWGGHKVFMVKPEEPFQPVKEATQL [W141F],0.0682,0.0639,–,0.0546,0.0341,–,–,0.0668,–,0.055
MGESLFKGPRDYNPISSSICHLTNESDGHTTSLYGIGFGPFIITNKHLFRRNNGTLVVQSLHGVFKVKDTTTLQQHLVDGRDMIIIRMPKDFPPFPQKLKFREPQREERICLVTTNFQTKSMSSMVSDTSCTFPSGDGIFWKHWIQVKDGQCGSPLVSTRDGFIVGIHSASNFTNTNNYFTSVPKNFMELLTNQEAQQWVSGWRLNADSVLWGGHKVFMVKPEEPFQPVKEATQL [T147V],0.072,–,0.0471,–,–,0.0618,–,0.0651,0.0925,–
MGESLFKGPRDYNPISSSICHLTNESDGHTTSLYGIGFGPFIITNKHLFRRNNGTLVVQSLHGVFKVKDTTTLQQHLVDGRDMIIIRMPKDFPPFPQKLKFREPQREERICLVTTNFQTKSMSSMVSDTSCTFPSGDGIFWKHWIQTKIGQCGSPLVSTRDGFIVGIHSASNFTNTNNYFTSVPKNFMELLTNQEAQQWVSGWRLNADSVLWGGHKVFMVKPEEPFQPVKEATQL [D149I],0.058,0.0601,–,–,0.0656,–,0.0584,0.0617,0.072,–
MGESLFKGPRDYNPISSSICHLTNESDGHTTSLYGIGFGPFIITNKHLFRRNNGTLVVQSLHGVFKVKDTTTLQQHLVDGRDMIIIRMPKDFPPFPQKLKFREPQREERICLVTTNFQTKSMSSMVSDTSCTFPSGDGIFWKHWIQTKDGQCCSPLVSTRDGFIVGIHSASNFTNTNNYFTSVPKNFMELLTNQEAQQWVSGWRLNADSVLWGGHKVFMVKPEEPFQPVKEATQL [G153C],0.0449,–,–,0.0575,–,0.0556,0.0513,0.0281,0.0354,–
MGESLFKGPRDYNPISSSICHLTNESDGHTTSLYGIGFGPFIITNKHLFRRNNGTLVVQSLHGVFKVKDTTTLQQHLVDGRDMIIIRMPKDFPPFPQKLKFREPQREERICLVTTNFQTKSMSSMVSDTSCTFPSGDGIFWKHWIQTKDGQCFSPLVSTRDGFIVGIHSASNFTNTNNYFTSVPKNFMELLTNQEAQQWVSGWRLNADSVLWGGHKVFMVKPEEPFQPVKEATQL [G153F],0.0456,–,0.0579,–,–,0.0547,0.053,0.0531,0.0433,–

# Same assay, conditions: temperature: 34 °C; time window: 0-4 h after rhamnose induction
Variant,area with substrate ENNYFQS,area with substrate ENPYFQS,area with substrate ENCYFQS,area with substrate ENSYFQS,area with substrate ENMYFQS,area with substrate ENHYFQS,area with substrate ENQYFQS,area with substrate ENRYFQS,area with substrate ENWYFQS
MGESLFKGPRDYNPISSSICHLTNESDGHTTSLYGIGFGPFIITNKHLFRRNNGTLVVQSLHGVFKVKDTTTLQQHLVDGRDMIIIRMPKDFPPFPQKLKFREPQREERICLVTTNFQTKSMSSMVSDTSCTFPSGDMIFWKHWIQTKDGQCGSPLVSTRDGFIVGIHSASNFTNTNNYFTSVPKNFMELLTNQEAQQWVSGWRLNADSVLWGGHKVFMVKPEEPFQPVKEATQL [G138M],0.0608,0.0714,–,–,–,–,–,–,–
MGESLFKGPRDYNPISSSICHLTNESDGHTTSLYGIGFGPFIITNKHLFRRNNGTLVVQSLHGVFKVKDTTTLQQHLVDGRDMIIIRMPKDFPPFPQKLKFREPQREERICLVTTNFQTKSMSSMVSDTSCTFPSGDWIFWKHWIQTKDGQCGSPLVSTRDGFIVGIHSASNFTNTNNYFTSVPKNFMELLTNQEAQQWVSGWRLNADSVLWGGHKVFMVKPEEPFQPVKEATQL [G138W],–,–,0.0848,0.0554,–,–,–,–,–
MGESLFKGPRDYNPISSSICHLTNESDGHTTSLYGIGFGPFIITNKHLFRRNNGTLVVQSLHGVFKVKDTTTLQQHLVDGRDMIIIRMPKDFPPFPQKLKFREPQREERICLVTTNFQTKSMSSMVSDTSCTFPSGDGISWKHWIQTKDGQCGSPLVSTRDGFIVGIHSASNFTNTNNYFTSVPKNFMELLTNQEAQQWVSGWRLNADSVLWGGHKVFMVKPEEPFQPVKEATQL [F140S],–,–,–,0.0832,0.058,–,–,–,–
MGESLFKGPRDYNPISSSICHLTNESDGHTTSLYGIGFGPFIITNKHLFRRNNGTLVVQSLHGVFKVKDTTTLQQHLVDGRDMIIIRMPKDFPPFPQKLKFREPQREERICLVTTNFQTKSMSSMVSDTSCTFPSGDGIFFKHWIQTKDGQCGSPLVSTRDGFIVGIHSASNFTNTNNYFTSVPKNFMELLTNQEAQQWVSGWRLNADSVLWGGHKVFMVKPEEPFQPVKEATQL [W141F],0.0333,0.0467,–,–,–,0.0668,0.0608,0.0296,0.0697
MGESLFKGPRDYNPISSSICHLTNESDGHTTSLYGIGFGPFIITNKHLFRRNNGTLVVQSLHGVFKVKDTTTLQQHLVDGRDMIIIRMPKDFPPFPQKLKFREPQREERICLVTTNFQTKSMSSMVSDTSCTFPSGDGIFWKHWIQVKDGQCGSPLVSTRDGFIVGIHSASNFTNTNNYFTSVPKNFMELLTNQEAQQWVSGWRLNADSVLWGGHKVFMVKPEEPFQPVKEATQL [T147V],–,0.0622,–,–,–,–,–,0.0653,–
MGESLFKGPRDYNPISSSICHLTNESDGHTTSLYGIGFGPFIITNKHLFRRNNGTLVVQSLHGVFKVKDTTTLQQHLVDGRDMIIIRMPKDFPPFPQKLKFREPQREERICLVTTNFQTKSMSSMVSDTSCTFPSGDGIFWKHWIQTKIGQCGSPLVSTRDGFIVGIHSASNFTNTNNYFTSVPKNFMELLTNQEAQQWVSGWRLNADSVLWGGHKVFMVKPEEPFQPVKEATQL [D149I],0.0693,0.0578,–,0.0737,–,–,0.0593,–,0.0457
MGESLFKGPRDYNPISSSICHLTNESDGHTTSLYGIGFGPFIITNKHLFRRNNGTLVVQSLHGVFKVKDTTTLQQHLVDGRDMIIIRMPKDFPPFPQKLKFREPQREERICLVTTNFQTKSMSSMVSDTSCTFPSGDGIFWKHWIQTKDGQCCSPLVSTRDGFIVGIHSASNFTNTNNYFTSVPKNFMELLTNQEAQQWVSGWRLNADSVLWGGHKVFMVKPEEPFQPVKEATQL [G153C],0.0558,0.061,–,0.0409,0.0326,–,0.056,–,–
MGESLFKGPRDYNPISSSICHLTNESDGHTTSLYGIGFGPFIITNKHLFRRNNGTLVVQSLHGVFKVKDTTTLQQHLVDGRDMIIIRMPKDFPPFPQKLKFREPQREERICLVTTNFQTKSMSSMVSDTSCTFPSGDGIFWKHWIQTKDGQCFSPLVSTRDGFIVGIHSASNFTNTNNYFTSVPKNFMELLTNQEAQQWVSGWRLNADSVLWGGHKVFMVKPEEPFQPVKEATQL [G153F],–,0.0417,0.0463,–,–,–,–,0.0632,0.0222
